In PubChem BioAssay AID686978 (National Center for Advancing Translational Sciences (NCATS), 2013):
Among all 420,000 compounds or so, about 64,000 (15%) were called active. The inconclusive results got no clear call from the source; some entries with a clear call stand among them for comparison. Calls come from the whole dose curve; as a rule, active = well fitted inhibition curve with a large enough effect; inconclusive = small, poorly fitted or top-dose-only effect; inactive = flat fitted curve, though single readings scatter. Potencies of inconclusive entries are left out as doubtful fits.

Test: qHTS for Inhibitors of human tyrosyl-DNA phosphodiesterase 1 (TDP1): qHTS in cells in absence of CPT; note: nearly all actives have a fitted effect of over 55% in size
Conditions: DT40 Tdp1-/- hTDP1 cells, no CPT, ATP luminescence, 48 h; activity change, negative = growth inhibition: at 46.2 µM (top of the series) unless noted
Procedure, shortened: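 Growth kinetics read by CellTiter-Glo luminescence after ≥48 hr at 37 °C. Cells: DT40 Tdp1-/- stably carrying human TDP1, 400 per well, compound exposure in the absence of CPT (DMSO vehicle).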
% is set by controls: 0 for no effect and ±100 for the full control effect; potency is the fitted concentration of half-maximal effect; tags give direction and shape of the fitted curve.

Row | SMILES | Potency | activity change, negative = growth inhibition
1 | COc1ccc(/C=N/n2c(C3CCCCC3)n[nH]c2=S)c(OC)c1 | inconclusive [inhibitor, partial curve] | –
2 | COc1cccc(C2C(C#N)=C(N)N(N(C)C)C3=C2C(=O)CC(C)(C)C3)c1OC (stereo unspecified) | – | inactive: 11.4%
3 | COc1ccccc1NC(=O)C1=C(C)Nc2nnnn2C1c1cc(Br)ccc1OC (stereo unspecified) | inconclusive [inhibitor, single point] | –
4 | CCOc1ccccc1N(CC(=O)Nc1cc(OC)ccc1OC)S(=O)(=O)c1ccccc1 | inconclusive [inhibitor, single point] | –
5 | Cc1ccc(C)c(NC(=O)CSc2nnc(NC(=O)Nc3ccccc3)s2)c1 | – | inactive: -22.7%
6 | Cc1ccc(OCCOC(=O)c2c(-c3ccccc3)noc2C)cc1 | inconclusive [inhibitor, single point] | –
7 | CC(C)(C)NC(=O)CN1CCCN(C(=O)c2cccc(S(=O)(=O)N3CCc4ccccc43)c2)CC1 | inconclusive [inhibitor, single point] | –
8 | Cc1ccc(CC(=O)Nc2ccccc2N2CCOCC2)cc1C | inconclusive [inhibitor, single point] | –
9 | COc1ccc(OCc2cc(C(=O)NC(C)c3csc(C)n3)no2)c(Cl)c1 (stereo unspecified) | inconclusive [inhibitor, partial curve] | –
10 | COc1ccc(OCCCC(=O)Nc2nc(C)c(C(C)=O)s2)cc1 | – | inactive: -5.91%
11 | COc1cccc(CN(C)CC(=O)NCc2ccc(C)cc2)c1 | inconclusive [inhibitor, single point] | –
12 | CCc1ccc(NC(=O)Cn2c(C(=O)OC)cc3oc(C)cc32)cc1 | inconclusive [inhibitor, full curve] | –
13 | Cc1ccc(S(=O)(=O)N2CCC(C(=O)NNC(=O)c3ccccc3O)CC2)cc1 | active: 14.6 µM | –
14 | C/C(=N/NC(=O)c1cc(-c2cccc([N+](=O)[O-])c2)n[nH]1)c1cccc(O)c1 | inconclusive [inhibitor, single point] | –
15 | Clc1ccccc1-c1nccc(NCc2ccccc2)n1 | inconclusive [inhibitor, single point] | –
16 | O=c1[nH]c(/C(Cl)=C/c2cccc(C(F)(F)F)c2)nc2cc(Cl)ccc12 | inconclusive [inhibitor, partial curve, poor fit] | –
17 | Cc1nc2nc(COc3ccccc3)[nH]n2c(=O)c1C | – | inactive: -18.5%
18 | CN(C)Cc1csc(NC(=O)Nc2cccc(C(F)(F)F)c2)n1 | active: 18.4 µM | –
19 | Cc1cccc(Nc2ncnc3ccccc23)c1 | – | inconclusive: -31.1% [inhibitor]
20 | CC(C)c1onc(C(=O)NC(C)c2ccccc2)c1[N+](=O)[O-] (stereo unspecified) | inconclusive [inhibitor, single point] | –
21 | O=C(NNC(=S)NCc1ccccc1)c1cccnc1 | – | inactive: 13.4%
22 | O=C(CNC(=O)c1ccccc1F)NCc1ccccn1 | – | inactive: -3.75%
23 | COc1cc(COc2ccc3c(C)c(Cc4ccccc4)c(=O)oc3c2)cc(OC)c1OC | inconclusive [inhibitor, single point] | –
24 | Fc1ccc(N2CCN(Cc3ccc4c(c3)CN(Cc3cccn3-c3cccnc3)CCO4)CC2)cc1 | active: 20.6 µM | –

Row | SMILES | Potency | activity change, negative = growth inhibition
25 | Cc1cccnc1Nc1nc(-c2ccccn2)cs1 | active: 0.146 µM | –
26 | O=C(Cn1c(=O)oc2ccccc21)Nc1ccccc1Cl | inconclusive [inhibitor, single point] | –
27 | COc1ccc(C(=O)C(C)OC(=O)c2cccc(S(=O)(=O)Nc3c(C)n(C)n(-c4ccccc4)c3=O)c2)cc1 (stereo unspecified) | inconclusive [inhibitor, single point] | –
28 | Nc1ccc(C(=O)NCC2(c3ccccc3)CCCC2)cc1 | inconclusive [inhibitor, single point] | –
29 | CCCCn1c(N)c(N(C(=O)CSc2nnnn2-c2ccccc2)C2CCCC2)c(=O)[nH]c1=O | – | inactive: 1.89%
30 | COc1ccc(CCNC(=O)c2nc(SCc3ccc(F)cc3)ncc2Cl)cc1OC | inconclusive [inhibitor, single point] | –
31 | CCOC(=O)Cc1cc(=O)n2[nH]c(C(C)(C)C)cc2n1 | – | inactive: -11.9%
32 | CCOC(=O)N1CCC(NC(=O)c2ccc3c(c2)N(Cc2ccc(F)cc2)C(=O)c2ccccc2S3=O)CC1 (stereo unspecified) | inconclusive [inhibitor, single point] | –
33 | CC(C)c1cc(-c2cc(-c3ccccc3)on2)nc(NC2CCCC2)n1 | – | inconclusive: -31.9% [inhibitor]
34 | CCCCn1c(C)cc2cc(O)ccc21 | inconclusive [inhibitor, full curve, poor fit] | –
35 | CCCCNC(=O)C[C@@H]1C[C@@]2(C(=O)OCC)CCCC=C2N(Cc2ccco2)C1=O | inconclusive [inhibitor, single point] | –
36 | Cc1ccc(CCNC(=O)C(C)n2nc(C)c3c(C)n(-c4ccc(C)cc4)nc3c2=O)cc1 (stereo unspecified) | active: 20.6 µM | –
37 | Nc1ncc(-c2ccccc2)n1CC1CCCO1 (stereo unspecified) | active: 18.4 µM | –
38 | Cc1c(C)n(C)c2ccc(C(=O)NCCCN3CCN(c4ccccc4F)CC3)cc12 | inconclusive [inhibitor, single point] | –
39 | COc1ccc2c(c1OC)CN(C)CCc1cc3c(cc1C(O)C2)OCO3 (stereo unspecified) | inconclusive [inhibitor, single point] | –
40 | Cc1ccc(C(=O)c2coc3ccc(O)c(CN(C)C)c23)cc1 | inconclusive [inhibitor, partial curve] | –
41 | Cc1cc(/C=C2\SC(=S)N(Cc3ccco3)C2=O)c(C)n1-c1ccccc1 | inconclusive [inhibitor, single point] | –
42 | CCN1CCN(c2nc3c(c(=O)n(C)c(=O)n3C)n2CCSc2nccc(C)n2)CC1 | inconclusive [inhibitor, partial curve, poor fit] | –
43 | CCN(CC)C(=S)NC(=O)c1ccc(F)cc1 | inconclusive [inhibitor, single point] | –
44 | C=C1C(=O)C23CCC4C(C)(C(=O)OC)CCCC4(C)C2CCC1(O)C3 (stereo unspecified) | active: 0.517 µM | –
45 | CCn1c(=O)c(=O)[nH]c2cc(C(=O)NC3CCCC3)ccc21 | inconclusive [inhibitor, single point] | –
46 | Cc1ccccc1NC(=O)C(NS(=O)(=O)c1ccc2c(c1)c(=O)n(C)c(=O)n2C)c1ccccc1 (stereo unspecified) | active: 16.4 µM | –
47 | CC(C)(Oc1ccc(Cl)cc1)C(=O)N1CCN(C(=O)c2ccco2)CC1 | – | inactive: -11.5%
48 | CN(C)CCCNc1c2c(nc3ccccc13)CCC2 | active: 14.6 µM | –

Row | SMILES | Potency | activity change, negative = growth inhibition
49 | Cc1ccc(CNC(=O)c2cc(=O)c3cc(C)c(C)cc3o2)cc1 | – | inactive: -26.6%
50 | O=C(O)c1cccc(-n2cccc2/C=C2/NC(=O)N(c3ccc(Cl)cc3)C2=O)c1 | – | inactive: -8.62%
51 | CC1CCCCN1Cc1c(O)ccc2c(=O)c(-c3ccc(Cl)cc3)coc12 (stereo unspecified) | active: 18.4 µM | –
52 | COc1ccc(CC(NC(C)=O)C(=O)NC2CCN(c3c(Cc4ccccc4)c(C)nc4ncnn34)CC2)c(OC)c1 (stereo unspecified) | inconclusive [inhibitor, single point] | –
53 | CCOc1ccccc1NC(=O)COC(=O)C(CC(C)C)N1C(=O)C2CC=CCC2C1=O (stereo unspecified) | inconclusive [inhibitor, single point] | –
54 | COc1ccc(C(N)c2csc(Nc3ccc(S(C)(=O)=O)cc3)n2)cc1 (stereo unspecified) | inconclusive [inhibitor, single point] | –
55 | CC(=O)c1cccc(NC(=O)CC(C)n2ccnc2)c1 (stereo unspecified) | – | inactive: -28.2%
56 | COc1ccccc1NC(=O)C1CCCN(S(=O)(=O)c2ccc3c(c2)CC(C)N3C(C)=O)C1 (stereo unspecified) | active: 7.31 µM | –
57 | CCOc1ccc(NS(=O)(=O)c2ccc(Cl)c(N=Nc3c(O)[nH]c(=S)[nH]c3=O)c2)cc1Br | – | inconclusive: -31.3% [inhibitor]
58 | O=C(NCC(=O)N1CCN(Cc2ccccc2)CC1)c1ccccc1Cl | – | inactive: 0.603%
59 | O=c1c(Cc2ccccc2)c(O)ccn1Cc1ccc2c(c1)OCO2 | inconclusive [inhibitor, single point] | –
60 | O=S(=O)(NCc1ccccn1)c1ccc(F)cc1 | – | inactive: -2.5%
61 | COc1ccc(NC(=O)c2cc(=O)c3cc(C)cc(C)c3o2)cc1 | inconclusive [inhibitor, single point] | –
62 | O=C(NNC(=O)c1cc2ccccc2cc1O)Nc1ccc(Br)cc1 | – | inactive: 5.04%
63 | CC(=O)n1cc([C@H]2C=C(C(=O)N3CCN(Cc4ccccc4)CC3)O[C@@H](OCCCCO)C2)c2ccccc21 | inconclusive [inhibitor, single point] | –
64 | CCOc1cccc2sc(NC(=O)c3ccc(S(=O)(=O)N4CCCCC4)cc3)nc12 | – | inactive: -5.92%
65 | COc1ccccc1CN(C)C(=O)c1cc(-c2cccs2)nc2ccccc12 | active: 16.4 µM | –
66 | CCN(C(=O)COC(=O)/C=C/c1c(C)nn(Cc2ccc(C)cc2)c1C)C1CCS(=O)(=O)C1 (stereo unspecified) | – | inactive: 0.455%
67 | CCOc1ccc(NC(=S)Nc2cccc3cnccc23)cc1 | inconclusive [inhibitor, single point] | –
68 | O=C(NCCS(=O)(=O)N1CCN(c2ccc(F)cc2)CC1)c1ccccc1Br | inconclusive [inhibitor, partial curve] | –
69 | Cc1cccc(C(=O)Nc2ccc(C(=O)c3ccccc3)cc2)c1 | inconclusive [inhibitor, single point] | –
70 | CCOc1ccc(CC(=O)NCCc2sc(-c3cccc(F)c3)nc2C)cc1 | – | inactive: -29.7%
71 | COc1ccc(NC(=O)c2cc3c(=O)n(C)c4cc(Cl)ccc4c3s2)cc1Cl | inconclusive [inhibitor, single point] | –
